# The supplement of paper PMC11417369
# ± gives the standard deviation of the averaged measurements. The list shows a part of the results.
# Test system: PfAP2-LT AP2 domain (GST-tagged)
# Experiment: gcPBM binding intensity (ln(normalized median fluorescence intensity)); higher = stronger DNA binding
# Method in brief: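 Plasmodium falciparum DNA-binding domains carrying a GST tag were expressed in E. coli and applied for 1 h, at about 25 μg on average, to an Agilent 4 × 180k array. The array held primer-extended double-stranded 36-bp intergenic genomic probes together with negative controls, and binding took place in 1× PBS with 1% milk, 0.2 mg/ml BSA, 0.5% salmon testes DNA and 0.03% Triton X-100. An Alexa488 anti-GST antibody detected bound protein, and the array was scanned at 488 nm. Binding intensity is taken as the highest Masliner-normalised natural-log median intensity across replicate spots of either probe orientation.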
row,Sequence,gcPBM binding intensity (ln)
1,AATAAAATGAGATGTTGTACAGTTTTGATATATGCA [XGTACX_site3052],8.78 ± 0.47
2,ATATATATATATAAAAGTACATGCTTATATATATAT [XGTACX_site3786],8.99 ± 0.35
3,TTTAAAAATGCTACATGTACAAAATAAAATATAATA [XGTACX_site2905],8.79 ± 0.49
4,AAGTTTATCACAGCCACGCACACATAATATATGTAT [CACACA_site3670],9.34 ± 0.46
5,CACCCACTAATAAACACACACATATATATATATATA [CACACA_site389],10.3 ± 0.18
6,TATATAAACATACATACACACATACAATAAGTAAAA [CACACA_site5118],9.31 ± 0.31
7,ATTTTTTTTATTCAATGTACTTTTTTTTATATATAT [XGTACX_site4978],8.8 ± 0.45
8,TACAAAATATATATGACACACATAAAAAAAAGTATA [CACACA_site1373],9.13 ± 0.52
9,AATAAAAAACTACAATATACAAAATTATTAAATCAA [GTGCAC_negctrl_site703],8.68 ± 0.48
10,CATATAAAAATATGCACACACAGGAATACAAACATA [CACACA_site684],9.75 ± 0.38
11,AAACGTACATAATACACACACATGTATCCATATAAA [CACACA_site5173],9.42 ± 0.42
12,ATTGTTCTATGATTTGTACACACTTTTTTTTAAAAT [CACACA_site2825],9.06 ± 0.4
13,ATATATATTTTTTAATGTACTTATATTTTTATAATA [XGTACX_site2103],8.64 ± 0.31
14,ATACAATAAAGGTGTACACATATATGATGCAAGATG [CACACA_site5897],9.29 ± 0.52
15,AGCAATTGTGTTTTCACACATAAATATATTCCTCAC [CACACA_site5021],8.96 ± 0.42
16,AATTAAACTCACACCACACACAAAAAAAAAAAAAAA [CACACA_site693],9.31 ± 0.4
17,GGTCATATTTTTTGCACACAAAAAAAAATATAAAAT [CACACA_site3381],9.13 ± 0.42
18,ATATATATATATATATGTACACATATATGTGTTTGT [XGTACX_site62],10.1
19,TTAATAAACCTTAGATGTACAGTTATATATAAAATA [XGTACX_site6681],8.54 ± 0.41

row,Sequence,gcPBM binding intensity (ln)
1,TGAACTCACGAGCACACACACACATATATATATATA [CACACA_site8248],10.3 ± 0.25
2,AGTGTAGGTATATAAACACACATACAGATATATAAT [CACACA_site4900],9.34 ± 0.52
3,GTATGTATGTATGTATGTACTTATGTAGTCTTAGTT [XGTACX_site1710],9.35 ± 0.32
4,TATTCAGGTCCAATGGTGCAATATATTTTTGTAATA [GTGCAC_site9607],8.7 ± 0.29
5,TAAAAAATAAAATGGACACACACGTTCAAATTTAGA [CACACA_site2083],9.05 ± 0.42
6,AATTATAATTAATAGAGTACTGAATATATATATATA [XGTACX_site8683],8.99 ± 0.26
7,TTCCCTTTTTTTATTTGTACTTATCTTTTAAATAAT [XGTACX_site2497],8.82 ± 0.54
8,AGCATTTTTCATTTTGCACACATGTTTTATGTGTAT [CACACA_site3454],9.48 ± 0.24
9,TAAAATATAATAAAATGTACACGCATGCAATAGAAT [XGTACX_site7434],9.41 ± 0.35
10,GCTTCTTAGTATACTTTATAAAATATATATTAAATA [XGTACX_negctrl_site57],8.39 ± 0.35
11,ATATCGGGTGCATTAACACACATTTATTTGAATAAA [CACACA_site2350],8.89 ± 0.47
12,ATATTAAATATAATTTGTACGCATTTTTTTTTTTTT [XGTACX_site1910],8.69 ± 0.49
13,ATATATCATAATAGAGGTACACATATTATATATATA [XGTACX_site782],8.85 ± 0.48
14,TTTATAAATATATATACACACACATATATATTATAT [CACACA_site8099],9.18 ± 0.4
15,ATATACATATATATGGGTACATATATTAATATATAT [XGTACX_site8358],8.87 ± 0.48
16,TCTGTTAATATTTATACACACATATTTATTTATATA [CACACA_site6658],8.94 ± 0.44
17,TTAACATATTATAAGTGTACATATTTATAAACAAGA [XGTACX_site8806],8.71 ± 0.39
18,ATTTTGAAAAATAAAAGTACATATAATATATCTACA [XGTACX_site7185],8.37 ± 0.45
19,TTTAGATATATGGTAGTGCATAATAAAAATATAGCC [GTGCAC_site9449],8.68 ± 0.42

row,Sequence,gcPBM binding intensity (ln)
1,CACTCCATATTATACACACACACAAATGAAAAAAAT [CACACA_site3019],9.73 ± 0.33
2,AATATTACAAAATATTGTCCGTACAAATTTTTAATA [XGTACX_site8129],8.43 ± 0.42
3,AAAAAAAAAAAAAAGACACACATATATATATATATA [CACACA_site633],10.1 ± 0.13
4,GATGATAAAATATGTACACACAGTTTATACATTTTG [CACACA_site4055],9.07 ± 0.51
5,TTTTTTTTTTTAAAATGTACACGTAATTACATATAT [XGTACX_site752],8.84 ± 0.49
6,TGATGGTTACGTTTATGTACACATTACAGTTAGTAT [XGTACX_site998],8.99 ± 0.36
7,TTAAAAATTATATAAGTGCATTAATATTTAGAACAA [GTGCAC_site9773],8.39 ± 0.41
8,ACTACATTATTGCATTGTACTTTTTTTTTTTTTTTA [XGTACX_site4605],9.03 ± 0.47
9,GAGTTAATATTTAAAAGTACAAGATGAATGTAAAAA [XGTACX_site5810],8.79 ± 0.6
10,AAAATATATTAAGGCACACACATACATATATATATA [CACACA_site3723],9.65 ± 0.27
11,TATATTGAATGCAAAAGTACATTTGTGTAAATTTAT [XGTACX_site7611],8.75 ± 0.41
12,TTTAAATTATGAAATTGTACATATAAAAATATTTTA [XGTACX_site4796],8.13 ± 0.42
13,TTTTTTTTATTAGTGTGTACGCATTTATTTATACAT [XGTACX_site1599],9.2 ± 0.49
14,TATATATTATTTAAAACACACAAAAAAAAAAATTAT [CACACA_site89],8.67 ± 0.45
15,TACTTACCAAAATACACACACACACCCAATATATAA [CACACA_site1871],10.1 ± 0.12
16,TTAAAAATATATGAATGTACATATATTTATATATAT [XGTACX_site77],8.53 ± 0.35
17,TACAGGAATATTTTTACACACTAAAAATTATAAAAT [CACACA_site1649],8.71 ± 0.46
18,TGATTGAGTAAAATGGGTACATATACACTATTACAT [XGTACX_site5232],8.78 ± 0.5
19,TTTTTTACTTTTGAGACATTTCATATTTTTATTCAC [GTGCAC_negctrl_site730],8.72 ± 0.49
